The list shows a part of the results.
Target: T1, OsWOX13 (Oryza sativa, UniProt Q5QMM3 1-267)
T1 sequence: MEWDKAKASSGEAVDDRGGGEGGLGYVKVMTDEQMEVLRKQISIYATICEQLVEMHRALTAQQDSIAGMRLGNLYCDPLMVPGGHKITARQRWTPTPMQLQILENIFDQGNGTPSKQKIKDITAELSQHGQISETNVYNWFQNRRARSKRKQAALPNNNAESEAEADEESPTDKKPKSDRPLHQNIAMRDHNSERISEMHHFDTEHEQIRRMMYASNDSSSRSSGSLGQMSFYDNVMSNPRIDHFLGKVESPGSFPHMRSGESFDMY
Assay: protein-binding microarray (RPBM); PBS, 2% BSA, 51.3 ng/ul salmon testes DNA, 50 uM zinc acetate, 200 nM TF, 25 C, 1 h; high values mean tight binding
Settings: protein: recombinant; tags: N-terminal polyhistidine and DsRed monomer fusion (pET32a); label: CyDye5-dUTP incorporated in the synthesized complementary strand; 3' TTTTT single-stranded linker to array surface; dsDNA, one strand shown
In short: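 An Axon 4000B scanner gave the binding signal as per-feature fluorescence intensity in arbitrary units. This followed washing of a custom Agilent array that had been incubated for 1 h at 25 °C with 200 nM protein in PBS, 2% BSA, salmon testes DNA and 50 µM zinc acetate. The proteins were transcription factors fused at the N-terminus to polyhistidine and DsRed, expressed in E. coli BL21-CodonPlus and purified on Ni–NTA.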

Q: With “CATCCAATTATGTCACAACAAATTATATACGAGAGTTTGACGGAGTCACCTAGTGCAG” as the sequence, how does the binding signal read?
A: Its binding signal is 13300 fluorescence intensity (a.u.).

Q: With “TTTGATTGTTGTGCTTTTGCTTCTGTGGGTCAAAACCCTGCGGAGTCACCTAGTGCAG” as the sequence, how does the binding signal read?
A: Its binding signal is 9560 fluorescence intensity (a.u.).

Q: For “CACGCCTTAATTAATTCTATGAATTGGTTGAACACAGTAACGGAGTCACCTAGTGCAG”, which binding signal is on record?
A: Its binding signal is 17800 fluorescence intensity (a.u.).

Q: For “ATAATTAACTACTCCCTCCGTTTCATAATATAAGAATTTCCGGAGTCACCTAGTGCAG”, which binding signal is on record?
A: Its binding signal is 9330 fluorescence intensity (a.u.).

Q: For “GTTTAATTATTCCCTGCAATTTTGTTAATTAATCAGACTTCGGAGTCACCTAGTGCAG”, which binding signal is on record?
A: Its binding signal is 34300 fluorescence intensity (a.u.).

Q: Which binding signal does the source give for “CTATGAATTGATGCTGTCGTTGAATGCTGGGTAAACAACGCGGAGTCACCTAGTGCAG” here?
A: Its binding signal is 3920 fluorescence intensity (a.u.).

Q: With “TATTAATTATTCTAAATTTAAATTGTGGTTAAGATGATTTCGGAGTCACCTAGTGCAG” as the sequence, how does the binding signal read?
A: The binding signal was 28700 fluorescence intensity (a.u.).

Q: For “GGTGATGGTGTTTTGATGAAGGATTGCTCGACCTAACGGTCGGAGTCACCTAGTGCAG”, which binding signal is on record?
A: Its binding signal is 9540 fluorescence intensity (a.u.).

Q: For “CACAAACAACTTAAACTAGACTAACTAGACAAACAAGATGCGGAGTCACCTAGTGCAG”, which binding signal is on record?
A: The binding signal was 4600 fluorescence intensity (a.u.).

Q: For “AGTGGCTTAATTTGGACCCAGCAATTTCAGCAAGCCGACTCGGAGTCACCTAGTGCAG”, which binding signal is on record?
A: Its binding signal is 3270 fluorescence intensity (a.u.).

Q: With “TTAAATTTAACATGTCACGTTAAATTTAAGAAAATTTTGACGGAGTCACCTAGTGCAG” as the sequence, how does the binding signal read?
A: Its binding signal is 16700 fluorescence intensity (a.u.).

Q: How did the binding signal turn out when “GCTGATGGATCTTGTAATCGTACCTGTGAAGTTTGTGCTACGGAGTCACCTAGTGCAG” was run?
A: Its binding signal is 17000 fluorescence intensity (a.u.).

Q: With “GAAGATTGAGTACAGGAACGCAAAATGAGAAAATCATTAGCGGAGTCACCTAGTGCAG” as the sequence, how does the binding signal read?
A: Its binding signal is 8910 fluorescence intensity (a.u.).

Q: How did the binding signal turn out when “CGTTGCAATTACCATCCTCCTCTGACTGGAAATATCAACGCGGAGTCACCTAGTGCAG” was run?
A: Its binding signal is 6930 fluorescence intensity (a.u.).

Q: Which binding signal does the source give for “GTGATCGGATTGTAGATTGGATAATTAGTTTAACAGAAAACGGAGTCACCTAGTGCAG” here?
A: Its binding signal is 12700 fluorescence intensity (a.u.).

Q: With “GCCGTGATGAAGTGATTGGGTGGCTGCAACAGCTAAAATGCGGAGTCACCTAGTGCAG” as the sequence, how does the binding signal read?
A: The binding signal was 26100 fluorescence intensity (a.u.).

Q: “GTAATTGCGGCCCATTAACCTAAATGGGCCGATCGAGTGGCGGAGTCACCTAGTGCAG” was tested. Which binding signal did it give?
A: The binding signal was 4580 fluorescence intensity (a.u.).

Q: “TAAATTGTAATTTGTAATAAAACAGTAAATGAACCTTCTCCGGAGTCACCTAGTGCAG” was tested. Which binding signal did it give?
A: The binding signal was 36900 fluorescence intensity (a.u.).

Q: Which binding signal does the source give for “TACCTAATTAATTTTGCTCCGTTTTGCGTGCGTGGAGTATCGGAGTCACCTAGTGCAG” here?
A: Its binding signal is 26100 fluorescence intensity (a.u.).

Q: With “CCATTAATTATGTTGGACATAATTAAGAGAATTTGCTAAACGGAGTCACCTAGTGCAG” as the sequence, how does the binding signal read?
A: Its binding signal is 52300 fluorescence intensity (a.u.).

Q: Which binding signal does the source give for “TCTGAATCATTGACATTGTTCAGTGCTCCATTTGTCTGTTCGGAGTCACCTAGTGCAG” here?
A: Its binding signal is 4300 fluorescence intensity (a.u.).

Q: With “TCCGGATCTGATTTATTCTTTTCTCTGGAGTTAAGCTGACCGGAGTCACCTAGTGCAG” as the sequence, how does the binding signal read?
A: The binding signal was 6330 fluorescence intensity (a.u.).

Q: Which binding signal does the source give for “CCTTAATTACCCCGACTAGACCCCTATCAAGGATCCAAAGCGGAGTCACCTAGTGCAG” here?
A: Its binding signal is 5140 fluorescence intensity (a.u.).

Q: How did the binding signal turn out when “ATTGATCAAATGGACAGGATTGATATGTGTATATTTCTATCGGAGTCACCTAGTGCAG” was run?
A: The binding signal was 27200 fluorescence intensity (a.u.).

Q: For “TTTCAATTTAAATGCTGCAAATATTGTGAAACCTGAAGATCGGAGTCACCTAGTGCAG”, which binding signal is on record?
A: The binding signal was 4450 fluorescence intensity (a.u.).

Q: For “ATAATTGAAACGATGCCATCAGAATACGTATGAAATTAGACGGAGTCACCTAGTGCAG”, which binding signal is on record?
A: Its binding signal is 22300 fluorescence intensity (a.u.).

Q: How did the binding signal turn out when “ACTAATTTTATAACTCGCCCGGAAATCGTGTGACGGATTTCGGAGTCACCTAGTGCAG” was run?
A: The binding signal was 8160 fluorescence intensity (a.u.).

Q: Which binding signal does the source give for “AATCTTATTGATTTAGGGCATATATCTGGGAAGGTTGCTACGGAGTCACCTAGTGCAG” here?
A: Its binding signal is 12200 fluorescence intensity (a.u.).

Q: For “ATTAATCCTAATTACTCCTAACCATTAATCCAACTATAAACGGAGTCACCTAGTGCAG”, which binding signal is on record?
A: The binding signal was 4260 fluorescence intensity (a.u.).

Q: For “GGCTAAAGTAAAACTTAATTAGTGAGTTGTTTATCTTTTCCGGAGTCACCTAGTGCAG”, which binding signal is on record?
A: The binding signal was 3420 fluorescence intensity (a.u.).

Q: Which binding signal does the source give for “CTCTTGATTGTATCCTTAGGCACTTTGTATATTCTCGAGTCGGAGTCACCTAGTGCAG” here?
A: The binding signal was 31700 fluorescence intensity (a.u.).

Q: “CTGGCTTGATTTAGTTGTCTCGACGTTGTTCAGGTGGTCTCGGAGTCACCTAGTGCAG” was tested. Which binding signal did it give?
A: Its binding signal is 6700 fluorescence intensity (a.u.).

Q: “AGAATGATTTAAGTGAGCGGCTTAAATTTTATTATCGCTTCGGAGTCACCTAGTGCAG” was tested. Which binding signal did it give?
A: The binding signal was 18600 fluorescence intensity (a.u.).

Q: Which binding signal does the source give for “CGTGATGGAAAGATTACATCACATCCTATCTTTTGGATATCGGAGTCACCTAGTGCAG” here?
A: The binding signal was 20000 fluorescence intensity (a.u.).

Q: Which binding signal does the source give for “ACAAAGATTTGTTATCAAATAGTTGCAAATGATTAGTTAGCGGAGTCACCTAGTGCAG” here?
A: Its binding signal is 4120 fluorescence intensity (a.u.).

Q: How did the binding signal turn out when “AATAATTTTGGAATGGCACCGAATTACCCTCTCCACCTCGCGGAGTCACCTAGTGCAG” was run?
A: Its binding signal is 9720 fluorescence intensity (a.u.).

Q: For “ACTTAATTTTAGTCTTAATATTTAGACACTAATTTAGAGTCGGAGTCACCTAGTGCAG”, which binding signal is on record?
A: Its binding signal is 46100 fluorescence intensity (a.u.).

Q: How did the binding signal turn out when “TCTAAATCAAAACCACATGATAAATTTAAAACCCCACAGACGGAGTCACCTAGTGCAG” was run?
A: Its binding signal is 3180 fluorescence intensity (a.u.).

Q: How did the binding signal turn out when “AAAATCACTGGATTAATTGATTGCGTCGTACTATCATTGCCGGAGTCACCTAGTGCAG” was run?
A: The binding signal was 64600 fluorescence intensity (a.u.).

Q: Which binding signal does the source give for “TCTGAATAAATTTTATAAACCAAAATTTGAATACAAATTCCGGAGTCACCTAGTGCAG” here?
A: Its binding signal is 3170 fluorescence intensity (a.u.).

Q: For “TACTAGATTGCTATATTATGGGACGGAGGGAGTACATCCCCGGAGTCACCTAGTGCAG”, which binding signal is on record?
A: Its binding signal is 16500 fluorescence intensity (a.u.).

Q: Which binding signal does the source give for “AAATATCTTCAAATTATAAATCATGTAAATTTAATCCATTCGGAGTCACCTAGTGCAG” here?
A: Its binding signal is 6340 fluorescence intensity (a.u.).

From PMC7819943, “Rice protein-binding microarrays: a tool to detect cis-acting elements near promoter regions in rice”
